# Several values for one entry are separate records, joined by “and”; a condition that tells them apart may be missing. Identical values can stand only once. The whole screen tested about 340,000 compounds, of which about 2,100 (0.62%) were called active. The inconclusive results got no clear call from the source; some entries with a clear call stand among them for comparison.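 How the source made its calls: active means first-screen hits whose inhibition reached a set limit at any dose in the follow-up dose series; inconclusive means inhibition above the set first-screen limit but never retested; inactive means the rest.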
# Molecular target: Rac GTPase-activating protein 1 (Homo sapiens) (UniProt Q9H0H5)
# Sequence of UniProt Q9H0H5 (Q9H0H5 whole entry, looked up): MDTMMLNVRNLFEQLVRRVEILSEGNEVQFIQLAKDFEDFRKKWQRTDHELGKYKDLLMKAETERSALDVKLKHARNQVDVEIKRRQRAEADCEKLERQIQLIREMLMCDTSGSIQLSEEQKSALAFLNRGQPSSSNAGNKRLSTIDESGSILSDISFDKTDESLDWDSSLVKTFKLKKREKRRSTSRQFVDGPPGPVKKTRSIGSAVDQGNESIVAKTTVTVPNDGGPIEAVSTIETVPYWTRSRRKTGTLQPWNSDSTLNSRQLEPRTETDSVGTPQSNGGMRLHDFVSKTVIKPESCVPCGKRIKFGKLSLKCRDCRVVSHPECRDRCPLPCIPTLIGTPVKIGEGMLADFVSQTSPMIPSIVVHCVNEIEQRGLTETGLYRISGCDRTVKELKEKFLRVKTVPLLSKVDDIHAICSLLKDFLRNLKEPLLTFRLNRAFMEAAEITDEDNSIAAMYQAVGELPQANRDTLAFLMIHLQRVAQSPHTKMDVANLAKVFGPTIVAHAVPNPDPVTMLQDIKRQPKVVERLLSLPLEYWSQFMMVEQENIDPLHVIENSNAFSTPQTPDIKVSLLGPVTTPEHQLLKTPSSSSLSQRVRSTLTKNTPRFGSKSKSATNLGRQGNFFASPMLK
# Assay: blockers of MgcRacGAP-driven Rac1 GTP hydrolysis – biochemical, ADP Hunter fluorescence, primary and confirmatory, confirmation (AID 624330);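 further: fluorescence reports GDP produced by GAP-driven GTP hydrolysis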
# Settings: MgcRacGAP-stimulated Rac1 GTP hydrolysis, at 30 µM, hits give high values, GST-tagged Rac1 F28L mutant substrate
row,SMILES,inhibition
1,C(C#CCCCCCCCCC[n+]1ccccc1)#CCCCCCCCCC[n+]1ccccc1,inconclusive: 33.4% and inconclusive: 39.8%
2,COc1ccc(CNc2cc(C)ccc2C)c(OC)c1OC,inactive: 14.2%
3,COc1cc(C(=O)NNC(=O)c2cc(=O)[nH]c3ccccc23)cc(OC)c1OC,inactive: 5.5%
4,NS(=O)(=O)c1ccc(N=Nc2c[nH]c(=O)c(O)c2)cc1,inconclusive: 49.2%
5,O=C(C1CCCN(Cc2ccc3c(c2)OCO3)C1)N1CCCC1 (centres undefined),inconclusive: 35.8%
6,COc1cc(CNc2ccc(N3CCCCC3)cc2)ccc1OCC(=O)NC(C)(C)C,inconclusive: 98%
7,CCOC(=O)N1CCN(c2cc(NCCC(=O)O)c3c4c(onc24)-c2ccccc2C3=O)CC1,inconclusive: 46.9%
8,O=C(Nc1ccon1)Nc1ccc(Cl)cc1Cl,inactive: 2.26%
9,c1cncc(CNc2ccc3c(c2)OCO3)c1,inconclusive: 49.6%
10,COc1ccc(CC(=O)NCCN2CCOCC2)cc1,inactive: -0.23%
11,Cc1ccc(/C=C/C(=O)Nc2ccc(N(C)C)cc2)o1,inconclusive: 72%
12,COc1ccccc1C(=O)N1CCN(Cc2c[nH]c3ccccc23)CC1,inconclusive: 35.5%
13,O=S(=O)(NN1CCOCC1)c1ccc(Br)s1,inconclusive: 41.5%
14,COc1cc(/C=C2/C(=O)NN(c3cccc(C)c3)C2=O)cc([N+](=O)[O-])c1O,inconclusive: 33.4%
15,O=c1oc2ccccc2c(O)c1Sc1c(O)c2ccccc2oc1=O,inactive: 16.1%
16,CCOc1cc(/C=N/Nc2nc(C)cc(=O)[nH]2)ccc1O,inconclusive: 46.3%
17,COc1ccc(N2CCN(C(c3cccs3)C(C)NC(=O)C(=O)N3CCCCC3)CC2)cc1 (centres undefined),inconclusive: 35.5%
18,O=C(CCc1ccccc1)NCC(=O)N/N=C/c1ccc(O)cc1O,inconclusive: 39.7%
19,CCNc1cc(O)ccc1C,inconclusive: 39.6%
20,Cc1ccc(S(=O)(=O)Nc2cc(Cl)c(O)cc2C)cc1,inconclusive: 34.8%
21,COc1c(O)cc2oc(-c3ccc(O)c(O)c3)cc(=O)c2c1O,inconclusive: 75.4%
22,O=c1cc(CN2CCN(c3ccc(O)cc3)CC2)nc2scc(-c3ccccc3)n12,inconclusive: 37.5%
23,Brc1cccc(OCCN2CCCCC2)c1,inactive: 17.4%

row,SMILES,inhibition
1,C#CCOCCOCCOCCNc1nc(N2CCN(C(=O)CCCCCCCCCCNC(=O)Cn3cc(CCCCCN)nn3)CC2)nc(N2CCN(C(=O)CCCCCCCCCCNC(=O)[C@H]([C@@H](C)CC)n3cc(CCCCCN)nn3)CC2)n1,inconclusive: 72.3%
2,O=C(O)c1ccccc1-c1ccc(/C=c2\sc3nc4cc(Br)cnc4n3c2=O)o1,inconclusive: 82%
3,CCc1cccc(NS(=O)(=O)c2c(C)nc3scc(C)n3c2=O)c1,inactive: 1.2%
4,Oc1ccc(/C=C/c2cnccn2)cc1,inconclusive: 108%
5,CCc1nnc(NC(=O)CN2CCN(c3ccccc3OC)CC2)s1,inconclusive: 23.1%
6,CSc1nnc(-c2ccco2)c(-c2ccco2)n1,inconclusive: 52.5%
7,CN(C)c1ccc(Nc2ncnc3ccc(Br)cc23)cc1,inconclusive: 59.3%
8,CCc1ccc(NC(=O)C2CCN(S(=O)(=O)c3ccc4c(c3)NC(=O)CO4)CC2)cc1,inactive: -14%
9,O=C(Sc1cccc2cccnc12)c1ccccc1Br,inconclusive: 45.5%
10,CN(C)CCOc1ccc(Cl)cc1C(C)(C)C,inconclusive: 35.6%
11,N#Cc1ccccc1S(=O)(=O)N1CCN(CC(O)CN2CCOCC2)CC1 (centres undefined),inconclusive: 33%
12,CCN(CC)c1ccc(/C=N/NC(=O)C2CC2)cc1,inconclusive: 33.2%
13,Cc1nn(-c2ccccc2)c2[nH]c(=O)c(CNc3ccc(N4CCOCC4)cc3)cc12,inconclusive: 89%
14,N=C1/C(=C\c2ccc(-c3ccc(C(=O)O)cc3)o2)C(=O)N=C2SC=C(c3ccccc3)N12,inconclusive: 34%
15,COc1ccc(S(=O)(=O)Nc2cc(C(=O)NCCC(C)C)ccc2N2CCOCC2)cc1,inactive: -3.38%
16,O=C(CN1CCN(c2ccc(O)cc2)CC1)Nc1cc(S(=O)(=O)N2CCOCC2)ccc1Cl,inconclusive: 59%
17,Cc1ccccc1CN1CCN(CC2CC3C=CC2C3)CC1 (centres undefined),inconclusive: 35.1%
18,CN(C)c1ccc(NC(=O)CSc2nnc(-c3cccs3)n2Cc2ccco2)cc1,inconclusive: 60%
19,COc1cc(/C=N/NC(=O)c2sc(N)c(C#N)c2C)ccc1O,inconclusive: 37.2%
20,C/C(C/C(C)=C1/SC(=S)NC1=O)=C1\SC(=S)NC1=O,inconclusive: 43.8%
21,Nc1ccc(Br)c2cccnc12,inactive: 9.68%
22,N#C/C(=C\c1ccc(O)c(O)c1)C(=O)NCCCc1ccccc1,inconclusive: 74.2%
23,Cc1cc(N/N=C/c2ccc(O)cc2)c2cccc(C)c2n1,inconclusive: 87.7%

row,SMILES,inhibition
1,COc1ccc(C2CC(c3ccncc3)=NN2c2ccc(S(N)(=O)=O)cc2)cc1 (centres undefined),inactive: 9.08%
2,CCOc1ccc2nc3cc(N=Nc4ccc(N)nc4N)ccc3c(N)c2c1,inconclusive: 70.2%
3,O=C1c2ccc([N+](=O)[O-])cc2S(=O)(=O)N1Cc1ccccc1,inactive: 11.7%
4,COc1ccc(NC2CCCN(C(=O)c3ccc4nccnc4c3)C2)cc1OC (centres undefined),inconclusive: 34.6%
5,O=[N+]([O-])c1ccc(Sc2cccc[n+]2[O-])c2nonc12,inconclusive: 57.6%
6,CN1OC[C@@H]2CN(Cc3cc(Cl)cc(Cl)c3)[C@H](c3cccc(-c4ccc(C#N)cc4)c3)C[C@@H]21,inactive: 13.8%
7,COc1ccc2ccccc2c1CNC(C)c1ccccc1 (centres undefined),inconclusive: 32.1%
8,Cn1c(=O)[nH]c(Nc2ccc(F)cc2)c([N+](=O)[O-])c1=O,inactive: 8.12%
9,Cc1c(NC(=O)CN2CCN(c3ccc(O)cc3)CC2)c(=O)n(-c2ccccc2)n1C,inconclusive: 49.7%
10,CCn1c(=O)c(C(=O)CN(C)Cc2ccc(F)cc2)c(N)n(Cc2ccccc2)c1=O,inactive: 5.49%
11,Nc1ccc(N)c(C(=O)O)c1,inconclusive: 78.8%
12,Cn1c(=O)c2c([nH]c(=S)n2Cc2ccc(Cl)cc2)n(C)c1=O,inconclusive: 101%
13,CCN(CC)c1ccc(S(=O)(=O)N2CCOCC2)cc1NC(=O)COC(=O)/C=C/c1ccccc1,inactive: -3.02%
14,Cc1n[nH]c(=O)nc1Nc1ccc(O)cc1,inconclusive: 64.1%
15,O=C(NO)c1ccc(OC(F)F)cc1,inconclusive: 33.2%
16,O=C(Cn1sc2ccccc2c1=O)NC12CC3CC(CC(C3)C1)C2,inconclusive: 76%
17,Cc1ccc([N+](=O)[O-])cc1NC(=O)CN(C)CCOc1ccccc1,inconclusive: 34%
18,CN(C)c1ccc(/C=N/OC(=O)Nc2ccccc2Cl)cc1,inconclusive: 32.9%
19,c1ccc(-c2ccccc2OCCN2CCCC2)cc1,inconclusive: 32.4%
20,COc1cc(NC(=O)c2cccnc2SC)cc(OC)c1OC,inactive: 9.4%
21,COCc1ccc(C(=O)N2CCCC(Nc3ccc4c(c3)OCCO4)C2)o1 (centres undefined),inconclusive: 44.4%
22,CC1CCCN(CCCOc2ccccc2-c2ccccc2)C1 (centres undefined),inactive: 18.1%
23,C/C=C(\C)C(=O)NCCN1C2=NC[C@@H](Cc3ccccc3)N2C[C@@H]1Cc1ccc(OC)cc1,inactive: 5.16%

row,SMILES,inhibition
1,Oc1ccc(-c2nc(-c3ccc(F)cc3)c(-c3ccncc3)[nH]2)cc1,inconclusive: 77%
2,COc1cc(/C=N/n2c(-c3n[nH]c4c3CCC4)n[nH]c2=S)cc(OC)c1O,inconclusive: 54.1%
3,O=c1cc(-c2ccc(O)cc2)oc2c([C@@H]3O[C@H](CO)[C@@H](O)[C@H](O)[C@H]3O)c(O)c([C@@H]3O[C@H](CO)[C@@H](O)[C@H](O)[C@H]3O)c(O)c12,inactive: 5.95%
4,O=C(Cc1nnc(NC(=O)c2ccccc2)s1)N/N=C\c1ccc(O)c(O)c1,inconclusive: 85%
5,[O-]/C(=C(\C(=S)Nc1cccc2ccccc12)[n+]1ccccc1)c1ccc(OC(F)F)cc1,inactive: 8.46%
6,Oc1ccc(/C=N/N(c2ccccc2)c2ccccc2)cc1O,inconclusive: 35.4%
7,COc1ccc(/C=N/NC(=O)c2ccc3c(c2)OCO3)cc1,inactive: 7.95%
8,COc1ccc(C(=O)N2CCN(C3CCCCC3)CC2)cc1OC,inconclusive: 34.2%
9,COc1ccc(CN2CCN(Cc3ccc(C(F)(F)F)cc3)CC2)c(OC)c1,inconclusive: 33.7%
10,COc1ccc(OCCCCN(C)Cc2ccccc2)cc1,inconclusive: 32.5%
11,Nc1c(O)cccc1C(=O)O,inconclusive: 35.5%
12,COc1ccc(N=Cc2c(O)ccc3ccccc23)cc1,inactive: 14.5%
13,COc1ccc2[nH]c3c(Cl)ncnc3c2c1,inactive: 2.77%
14,CCN(CC)CCCNc1nc2ccccc2[nH]1,inactive: 7.22%
15,CCN(CC)c1ccc(NC(=O)CCNC(=O)c2ccco2)cc1,inconclusive: 39.3%
16,Cc1ccc(OC(=O)C(F)(F)F)c2c1NCCC2,inactive: 22.1%
17,O=C(O)c1cccc(S(=O)(=O)Nc2ccc3oc(=O)sc3c2)c1,inconclusive: 47.3%
18,Cc1cc(SC#N)cc(C)c1NC(=O)CCl,inconclusive: 35.5%
19,CCN1CCN(Cc2ccc(NC(=O)c3ccc(C)c(/C=C/c4cnc(Nc5cc(N6CCNCC6)nc(C)n5)cn4)c3)cc2C(F)(F)F)CC1,inconclusive: 66.6%
20,COc1cccc2c1C(=O)c1c(O)c3c(c(O)c1C2=O)C[C@@](O)(C(=O)CO)C[C@@H]3O[C@H]1C[C@H](N)[C@@H](O)[C@H](C)O1,inconclusive: 70.8%

# — PubChem BioAssay AID624330 (Southern Research Specialized Biocontainment Screening …, 2012)
